Hit rate of the full screen: of about 3,200 compounds, about 300 (9.4%) showed activity. Only a part is listed here, and it is no random draw.
System: A673/TR/shEF
Assay: cell viability (LOESS-normalised, relative to median of negative controls) (log2 ratio); higher = more viable cells (less compound effect), active = hit call of the paper (over 3 MAD below the median)
Conditions: treatment time: 72 h
Summary of the method: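 A673/TR/shEF Ewing sarcoma cells (1,500 per well, 384-well plates) were grown with or without doxycycline to induce EWS-FLI1 shRNA knockdown, starting 24 h before compounds. Library compounds at two or more concentrations, with DMSO controls, were added for three days. Cell viability was read by CellTiter-Glo luminescence on an Envision reader, then LOESS-corrected per plate, divided by the median of negative controls and log2-transformed. Hits were wells at least three median absolute deviations from the median of all screened wells.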

[1] = 0.25 µM, library screen: screen1, EWS-FLI1 expression: high (no doxycycline)
[2] = 0.25 µM, library screen: screen1, EWS-FLI1 expression: low (doxycycline-induced shRNA knockdown)
[3] = 2.5 µM, library screen: screen1, EWS-FLI1 expression: high (no doxycycline)
[4] = 2.5 µM, library screen: screen1, EWS-FLI1 expression: low (doxycycline-induced shRNA knockdown)
[5] = 0.103 µM, library screen: screen3, EWS-FLI1 expression: high (no doxycycline)
[6] = 0.103 µM, library screen: screen3, EWS-FLI1 expression: low (doxycycline-induced shRNA knockdown)
[7] = 0.25 µM, library screen: screen2, EWS-FLI1 expression: high (no doxycycline)
[8] = 0.25 µM, library screen: screen2, EWS-FLI1 expression: low (doxycycline-induced shRNA knockdown)
[9] = 0.308 µM, library screen: screen3, EWS-FLI1 expression: high (no doxycycline)
[10] = 0.308 µM, library screen: screen3, EWS-FLI1 expression: low (doxycycline-induced shRNA knockdown)
[11] = 0.926 µM, library screen: screen3, EWS-FLI1 expression: high (no doxycycline)
[12] = 0.926 µM, library screen: screen3, EWS-FLI1 expression: low (doxycycline-induced shRNA knockdown)
[13] = 2.5 µM, library screen: screen2, EWS-FLI1 expression: high (no doxycycline)
[14] = 2.5 µM, library screen: screen2, EWS-FLI1 expression: low (doxycycline-induced shRNA knockdown)
[15] = 2.8 µM, library screen: screen3, EWS-FLI1 expression: high (no doxycycline)
[16] = 2.8 µM, library screen: screen3, EWS-FLI1 expression: low (doxycycline-induced shRNA knockdown)
[17] = 8.3 µM, library screen: screen3, EWS-FLI1 expression: high (no doxycycline)
[18] = 8.3 µM, library screen: screen3, EWS-FLI1 expression: low (doxycycline-induced shRNA knockdown)
[19] = 25 µM, library screen: screen3, EWS-FLI1 expression: high (no doxycycline)
[20] = 25 µM, library screen: screen3, EWS-FLI1 expression: low (doxycycline-induced shRNA knockdown)

Measured: cell viability (log2)

O=c1c(O)c(-c2ccc(O)c(O)c2)oc2cc(O)ccc12
inactive: [1] 0.102 | [2] 0.131 | [3] 0.118 | [4] 0.171

Cc1cc(C2CCCCC2)n(O)c(=O)c1
inactive: [1] 0.0729 | [2] 0.0678 | [3] 0.149 | [4] 0.158

C=C1CC/C=C(/C)CC[C@@H]2[C@@H]1CC2(C)C
inactive: [1] 0.102 | [2] 0.0257 | [3] 0.165 | [4] 0.118

O=C(O)C(=O)O.[NH-]C1CCCCC1[NH-].[Pt+2] (stereo unspecified)
inactive: [5] 0.0625 | [6] 0.0242 | [7] 0.0166 | [8] 0.126 | [9] 0.1 | [10] 0.0417 | [11] -0.00214 | [12] 0.0798 | [13] 0.0703 | [14] 0.0751 | [15] 0.0326 | [16] 0.0373 | [17] 0.000238 | [18] 0.0484 | [19] -0.117 | [20] -0.0858

O=C(O)c1cc2cc(Cl)ccc2[nH]1
inactive: [1] 0.0631 | [2] -0.00653 | [3] 0.106 | [4] 0.0362

Cc1ccc(OCC(=O)N2CCC(C)CC2)c(C)c1
inactive: [1] 0.0605 | [2] 0.118 | [3] 0.14 | [4] 0.114

O=C(O)c1cc(=O)c2ccccc2o1
inactive: [1] 0.117 | [2] 0.0802 | [3] 0.113 | [4] 0.0411

CC(=O)CC(=O)CCC(=O)O
inactive: [1] 0.167 | [2] 0.123 | [3] 0.14 | [4] 0.11

NS(=O)(=O)c1cc(C(=O)O)c(NCc2ccco2)cc1Cl
inactive: [5] 0.0932 | [6] -0.0415 | [1] 0.1 | [2] -0.0303 | [7] 0.155 | [8] 0.0924 | [9] 0.113 | [10] 0.0841 | [11] 0.0979 | [12] 0.067 | [3] 0.175 | [4] 0.111 | [13] 0.094 | [14] -0.00291 | [15] 0.0122 | [16] 0.0789 | [17] 0.0686 | [18] 0.0576 | [19] 0.0715 | [20] 0.0929

CCC[C@@H]1C[C@@H](C(=O)NC(C(C)Cl)[C@H]2O[C@H](SC)[C@H](O)[C@@H](O)[C@H]2O)N(C)C1 (stereo partly specified)
inactive: [5] 0.116 | [6] 0.116 | [1] 0.122 | [2] 0.0603 | [9] 0.0555 | [10] 0.0178 | [11] 0.122 | [12] 0.0533 | [3] 0.162 | [4] 0.16 | [15] 0.103 | [16] -0.00415 | [17] 0.0069 | [18] 0.0468 | [19] 0.000584 | [20] 0.111

COc1ccc2ccc(=O)oc2c1
inactive: [1] 0.112 | [2] 0.0698 | [3] 0.19 | [4] -0.0312

OCC(O)C1NCC(O)C1O (stereo unspecified)
inactive: [7] 0.0417 | [8] 0.103 | [13] 0.000766 | [14] 0.0189

CC(=O)Oc1cc(C)c2c(c1C(OC(C)=O)OC(C)=O)Oc1c(c(C)c(OC(C)=O)c3c1C(OC(C)=O)OC3=O)OC2=O (stereo unspecified)
inactive: [1] 0.0407 | [2] 0.0968 | [3] 0.0425 | [4] 0.133

COc1cc([S+](C)[O-])ccc1-c1nc2ncccc2[nH]1 (stereo unspecified)
inactive: [1] 0.101 | [2] 0.00949 | [3] 0.131 | [4] 0.0599

O=[N+]([O-])c1cccc2c(Br)[nH]nc12
inactive: [7] 0.237 | [8] 0.103 | [13] 0.209 | [14] 0.0734

CC(C)(O)[C@H]1CC[C@]2(C)[C@H]3CC[C@@H]4[C@@]5(C)CCCC(C)(C)[C@@H]5[C@@H](O)C[C@@]4(C)[C@]3(C)CC[C@@H]12
inactive: [1] 0.0136 | [2] 0.0775 | [3] 0.0306 | [4] 0.112

O=C1NCN(c2ccccc2)C12CCN(CCCC(c1ccc(F)cc1)c1ccc(F)cc1)CC2
inactive: [7] 0.134 | [8] 0.0215 | [13] 0.036 | [14] 0.0813

COc1cccc(OC)c1OCCNCC1COc2ccccc2O1 (stereo unspecified)
inactive: [7] 0.205 | [8] 0.0306 | [13] 0.221 | [14] 0.0591

CC(CN1c2ccccc2Sc2cccnc21)N(C)C (stereo unspecified)
inactive: [1] 0.132 | [2] 0.0453 | [3] 0.0549 | [4] 0.034

Reference: the supplement of paper PMC6089552
